# Results published in the supplement of paper PMC11417369.
# The other results are listed elsewhere or left out.
# System: PfSIP2 AP2 domain 1 (GST-tagged)
# Test: gcPBM binding intensity (ln(normalized median fluorescence intensity)); higher = stronger DNA binding
# Outline: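 DNA-binding domains from P. falciparum, fused to GST and produced in E. coli, were put on an Agilent 4 × 180k double-stranded probe array for 1 h in 1× PBS holding 1% milk, 0.2 mg/ml BSA, 0.5% salmon testes DNA and 0.03% Triton X-100. Probes were primer-extended, 36 bp long and drawn from intergenic genomic regions, with negative controls included. After Alexa488 anti-GST antibody detection and a 488 nm scan, binding intensity was set as the highest Masliner-normalised natural-log median intensity across replicate spots of either probe orientation.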
row,Sequence,gcPBM binding intensity (ln)
1,TTTTACACTTTTTTTTGTACACACTAAAAAGATTAA [XGTACX_site8407],7.02
2,AAAGGTTCATAAAAATGTACATAATTATTTACATGT [XGTACX_site2722],7.03
3,CAAATCATATATAGCACACAAATTCTTTATTATTAT [CACACA_site2815],6.78
4,CTGATCCACATTTATACACACCTCGGTTTGTAGAGA [CACACA_site4393],6.73
5,AAAATATATAATATTTGTACATATTGATGGCAACAG [XGTACX_site6454],7.05
6,AAGACAACATAAATATGTACATATATTTATTATTTT [XGTACX_site1792],6.94
7,TACAAAAAGAATGAAAAATATATAATAAAAATAAAA [XGTACX_negctrl_site159],6.87
8,CACATACCTATATACACACACAAAATAATAAAATAA [CACACA_site7150],7.32
9,AGAATGGATTAGCTAGCACACACAAAAAAAAAAAAA [CACACA_site8995],6.93
10,ACTAATATTTTATAAAGTACAAATTAATAAAATTCA [XGTACX_site5817],6.98
11,TATATATATATATTGACACACATGTATTTCAATATT [CACACA_site2832],8.96
12,CTTATATATTGCCCTTCACACACACCCATATATATA [CACACA_site8795],7.48
13,AAGTATGGAAAGGAATATAAATTAATACTTTCATTG [XGTACX_negctrl_site131],6.54
14,TTTTGTAGATATGACTGTACATATTTTATACATAAC [XGTACX_site971],7
15,AAAAAATAAATAAATACACACAAATATATATATATA [CACACA_site2543],9.48
16,TGGTAATCCACATACACACACACATACACATATATA [CACACA_site2727],7.31
17,AAGAAAAAAAAAATTACACACTGCGCAGATACACAA [CACACA_site1289],6.72
18,TAATATGTATATAAAAGTACAGACGATTATAATTAT [XGTACX_site173],6.99
19,ATATATATATGTAAGAGTACACAAAAATATGTATGT [XGTACX_site4335],8.63
20,AGTGGATGAGGACATACACACACACCGAAGTTGATA [CACACA_site9132],6.57
21,AAGGAATATATATACATACACACATATATATATATA [CACACA_site1665],9.23
22,AAAAAAAAAAAAAAAAAAAAAAATATATATATATAT [XGTACX_negctrl_site33],9.32
23,AAATTTTCATGTGTTGCATGCTGAACTATTTTATCA [TGCATGCA_site856],6.75

row,Sequence,gcPBM binding intensity (ln)
1,AATAAAAAGGAAAGGTATATGTGTGCCCTTGTGTTA [TGCATGCA_negctrl_site83],7.03
2,TATTTTTTCCTTTGTTTTTTAAACTATCTTAACTAA [XGTACX_negctrl_site519],6.71
3,AAATAAATAAAAAACACACACAAATAAATAAATATA [CACACA_site2249],6.91
4,ATATAATAAATATATTGTACATATGAATCTACTAAA [XGTACX_site7610],6.95
5,TAAAAAATGATAGAAGTGCATAAAATAATATATATA [GTGCAC_site9904],7.91
6,TTTCTATTTCCTTCACATCTTTTCATCTTTTTTTTT [CACACA_negctrl_site1110],6.98
7,GACTTGAAGAAATAAGTGCAGAGTTTTATTTTAATT [GTGCAC_site9912],7.93
8,AAAAAATTCCTATATACACACACGCACATATTTATA [CACACA_site6192],7.13
9,TTTATTAATAAGAAATGTACACAAAATTATTTCCAA [XGTACX_site5970],7.11
10,ATAGAGTCATTCCTCACACACACGCTATATGAATAG [CACACA_site2047],7.04
11,AAAAAATACTTATAAAGTACTAATATATATAAGCAG [XGTACX_site743],7.02
12,TAATTAAAATTAAGAAGTACATTTTACTTTTAATGC [XGTACX_site5120],6.98
13,TATCATGTTTTTATGGTGCATGAAATCACACATTGA,9.32
14,GAGAAATTTATACATACACACATATATATATTATAT [CACACA_site4038],7.16
15,AATACAAACCAAAAAGTAAATACATCAACATGATCA [CACACA_negctrl_site140],6.59
16,TACACCATGATACATACACACAGACATATACTCATT [CACACA_site4708],7.19
17,TCCAAATGTTTGCGTTGTACTCTTTTTTTAAAACTA [XGTACX_site5148],7.09
18,CCTGAAATTTTATTATGTACATATTATAAAATGATT [XGTACX_site1434],7.14
19,TGGCACTAAAAAAATAAACACACAGATTTATATAAT [CACACA_site8386],6.8
20,ATAACCACATAAAATATAATTATATATATATATATA [CACACA_negctrl_site603],9.44
21,ATTCCTCCCATGGAATGTACTCATCAAATAAATAAA [XGTACX_site6543],6.86
22,AATTTGGTGTGTGTAAAAGTATGTGTCTATATTTAT [GTGCAC_negctrl_site166],7.11
